Data on 153 variants can be found in a collection of fitness landscapes (doi:10.1126/science.1257360).

First the molecules themselves.
B1: PhoQ; a variant is named by its letters at X, in order, P23837 (parent)
chain: MKKLLRLFFPLSLRVRFLLATAAVVLVLSLAYGMVALIGYSVSFDKTTFRLLRGESNLFYTLAKWENNKLHVELPENIDKQSPTMTLIYDENGQLLWAQRDVPWLMKMIQPDWLKSNGFHEIEADVNDTSLLLSGDHSIQQQLQEVREDDDDAEMTHSVAVNVYPATSRMPKLTIVVVDTIPVELKSSYMVWSWFIYVLSANLLLVIPLLWVAAWWSLRPIEALAKEVRELEEHNRELLNPATTRELTSLVRNLNRLLKSERERYDKYRTTLTDLTHSLKTPLXXLQXXLRSLRSEKMSVSDAEPVMLEQISRISQQIGYYLHRASMRGGTLLSRELHPVAPLLDNLTSALNKVYQRKGVNISLDISPEISFVGEQNDFVEVMGNVLDNACKYCLEFVEISARQTDEHLYIVVEDDGPGIPLSKREVIFDRGQRVDTLRPGQGVGLAVAREITEQYEGKIVAGESMLGGARMEVIFGRQHSAPKDE

Some of the results follow.

Variants of B1 are the subject of the assay. The experiment in a line: enrichment ratio after two sorts for PhoP signalling (ratio (wild type AVST 3.29)); higher = more functional. The note with it: with PhoP (E. coli).
As for CPHI, the enrichment ratio was at most 0.25. The result for TIDY reads at most 0.25. To FYFG belongs at most 0.25; to QDAG, at most 0.25; to YHGI, at most 0.25. On to NPMW, for which the enrichment ratio is at most 0.25. TQID: the enrichment ratio is at most 0.25. To NCVA belongs at most 0.25; to RKFC, at most 0.25.

For SYIH, the enrichment ratio was at most 0.25. To HLIK belongs at most 0.25. The result for RNFS reads at most 0.25; that for MDYR, at most 0.25. To NTGM belongs at most 0.25.

Consider TRMH, for which the enrichment ratio is at most 0.25. To VYDR belongs at most 0.25; to DIDD, at most 0.25. Consider KPTI, for which the enrichment ratio is at most 0.25.

As to PFRT, the enrichment ratio is at most 0.25. The result for EQIG reads at most 0.25; that for MDCY, at most 0.25. To LFNK belongs 0.702; to MHGG, at most 0.25; to FITC, at most 0.25. As for YFQN, the enrichment ratio is at most 0.25. The result for RKLT reads at most 0.25; that for RPHR, at most 0.25. With RATV, the enrichment ratio is at most 0.25.

Regarding FIWQ, the enrichment ratio was at most 0.25. The result for TNQH reads 15; that for YMWF, at most 0.25; that for SMYW, at most 0.25. To HKIR belongs at most 0.25; to HAGD, at most 0.25.

For PEFC, the enrichment ratio was at most 0.25. To DINP belongs at most 0.25; to WNPK, at most 0.25; to YYPL, at most 0.25.

With REDW, the enrichment ratio was at most 0.25. The result for EHTA reads at most 0.25; that for LGRR, at most 0.25; that for KCMA, at most 0.25. To EFCP belongs at most 0.25. To TDCR belongs 4.57; to ALMT, at most 0.25. Regarding DYRW, the enrichment ratio is at most 0.25.

NYGL: the enrichment ratio was at most 0.25. To ADHK belongs at most 0.25.

For RIWI, the enrichment ratio is at most 0.25. To TEQF belongs 7.26. The result for TTFG reads 0.578; that for WDKP, at most 0.25. To IHSS belongs at most 0.25.

WLSL: the enrichment ratio is at most 0.25. The result for RLWR reads at most 0.25; that for EMHW, at most 0.25; that for LYMI, 0.418. To GFAF belongs at most 0.25; to NKET, at most 0.25; to TWAL, at most 0.25. To MDYP belongs at most 0.25. Consider HPWE, for which the enrichment ratio was at most 0.25. The result for PDML reads at most 0.25. The result for NFFS reads at most 0.25; that for AGMV, 4.64; that for WHFL, at most 0.25. The result for YREH reads at most 0.25. Turning to QEPW, the enrichment ratio was at most 0.25. Regarding ERGS, the enrichment ratio is at most 0.25. The result for RPPI reads at most 0.25; that for IPFA, at most 0.25.

On to SLAP, for which the enrichment ratio was at most 0.25. The result for QLLW reads at most 0.25; that for EDDL, at most 0.25; that for GEEV, at most 0.25. The result for LPAT reads at most 0.25; that for NITD, at most 0.25.

Consider YVYD, for which the enrichment ratio was at most 0.25. Turning to DVAC, the enrichment ratio is at most 0.25. The result for QDVR reads at most 0.25; that for PLRK, at most 0.25. With AKNT, the enrichment ratio was at most 0.25. To GGHC belongs at most 0.25; to VGIS, at most 0.25; to GKML, 2.04. As for TEYH, the enrichment ratio worked out at 20.6. To LTGT belongs at most 0.25.

Regarding WHIQ, the enrichment ratio was at most 0.25. The result for AHGD reads at most 0.25; that for QQKE, at most 0.25. To TVFW belongs at most 0.25; to LHMN, at most 0.25. Take QFKN: the enrichment ratio is at most 0.25.

For the variant FGCE, the enrichment ratio was at most 0.25. On to AALV, for which the enrichment ratio is 12.9. To VWHA belongs at most 0.25; to LYEG, at most 0.25; to VMGP, at most 0.25. The result for PPIA reads at most 0.25. The result for PELI reads at most 0.25. MANL: the enrichment ratio is at most 0.25. The result for QQHE reads at most 0.25. The result for FKVP reads at most 0.25; that for WILY, at most 0.25; that for QDQQ, at most 0.25. For YGKK, the enrichment ratio is at most 0.25. Turning to KICL, the enrichment ratio is at most 0.25. Consider GAWP, for which the enrichment ratio is at most 0.25. For ARMG, the enrichment ratio was at most 0.25. Turning to YNKA, the enrichment ratio was at most 0.25. To VVAV belongs at most 0.25; to CLTV, at most 0.25. The result for MFCA reads at most 0.25; that for MASA, at most 0.25; that for PWMQ, at most 0.25. Take ANIY: the enrichment ratio was 0.312. The result for DENC reads at most 0.25. To KVAC belongs at most 0.25; to RVYK, at most 0.25; to ESTH, at most 0.25.

As to ALDP, the enrichment ratio is at most 0.25. To MRLM belongs at most 0.25; to PATE, at most 0.25; to THWL, 0.311. The result for ESCQ reads at most 0.25; that for KGRN, at most 0.25; that for TAYC, 11.3.

Take DGFE: the enrichment ratio was at most 0.25. To GATG belongs at most 0.25; to GVFH, at most 0.25. To FWYW belongs at most 0.25; to SWFN, 0.515; to FLNP, at most 0.25. The result for VTVA reads at most 0.25; that for DQCI, at most 0.25.

With AADG, the enrichment ratio is at most 0.25. With LIWK, the enrichment ratio was at most 0.25. The result for HYTI reads at most 0.25. Regarding SAKG, the enrichment ratio was at most 0.25. To TMTS belongs 11.7. As to PGKC, the enrichment ratio is at most 0.25. To LLDH belongs at most 0.25; to YSLA, 6.93.

Regarding VAPC, the enrichment ratio is at most 0.25.

For the variant NNFV, the enrichment ratio was at most 0.25.

For the variant NMNS, the enrichment ratio was at most 0.25. Regarding RCHC, the enrichment ratio is at most 0.25. To PDAD belongs at most 0.25; to RWQH, at most 0.25; to WTAN, at most 0.25. The result for IGGM reads at most 0.25; that for YFFD, at most 0.25; that for PIKM, at most 0.25.
